Data as given in article PMC7073924, “2-Aminomethylene-5-sulfonylthiazole Inhibitors of Lysyl Oxidase (LOX) and LOXL2 Show Significant Efficacy in Delaying Tumor Growth” (Journal of Medicinal Chemistry, 2019).
Counter-ions that a name gives are not always drawn. Like-named read-outs stand apart in the source and are kept apart here. Marks after values point to notes of the source that are not given here.

Key:
[1] = rat liver microsomes; percentage of compound remaining after 30 min; 10 μM
MLM stability assay = conditions: mouse liver microsomes; percentage of compound remaining after 30 min; 10 μM
[2] = test system: MMTV-PyMT driven mouse breast cancer model; conditions: 70 mg/kg q.d. oral
[3] = female, mouse, in vivo, po, 50 mg/kg
[4] = mouse plasma, single po dose 50 mg/kg
[5] = read-out: Cmax(PO), mouse plasma, single po dose 50 mg/kg

SMILES: CS(=O)(=O)c1cc(-c2ccccc2)cc(S(=O)(=O)c2cnc(CN)s2)c1 [Compound 7a, (5-((5-(Methylsulfonyl)-[1,1′-biphenyl]-3-yl)sulfonyl)thiazol-2-yl)methanamine Hydrochloride]
- AUC (In vivo PK, mouse; [3]): > 18 µM·h
- Cmax (In vivo PK, mouse; [3]): ≤ 32 µM
- AUC(PO) (In vivo PK, mouse; [4]): 21.61 µM·h
- t1/2(PO) (In vivo PK, mouse; mouse, single po dose 50 mg/kg): 53.4 min
- Cmax (In vivo PK, mouse; [5]): 32 µM

SMILES: CCc1cc(-c2cnn(C)c2)cc(S(=O)(=O)c2csc(CN)n2)c1 [Compound 22d, (4-((3-Ethyl-5-(1-methyl-1H-pyrazol-4-yl)phenyl)sulfonyl)thiazol-2-yl)methanamine Hydrochloride]
- AUC (In vivo PK, mouse; [3]): > 18 µM·h
- Cmax (In vivo PK, mouse; [3]): ≤ 32 µM
- bioavailability (In vivo PK, mouse; [3]): 68%
- AUC(PO) (In vivo PK, mouse; [4]): 20.98 µM·h
- t1/2(PO) (In vivo PK, mouse; mouse, single po dose 50 mg/kg): 60 min

SMILES: CCc1cc(-c2cnn(C)c2)cc(S(=O)(=O)c2cnc(CN)s2)c1 [Compound 21b, (5-((3-Ethyl-5-(1-methyl-1H-pyrazol-4-yl)phenyl)sulfonyl)thiazol-2-yl)methanamine Hydrochloride]
- Cmax (In vivo PK, mouse; [3]): ≤ 32 µM
- RLM stability (%) [1]: (ii) 82 ^b %
- MLM stability (%) (MLM stability assay): (i) 76%
- deaths due to tumor volume reaching ethical size limits (Kaplan–Meier survival) [2]: no deaths due to tumor volume reaching ethical size limits

SMILES: NCc1ncc(S(=O)(=O)c2ccc3ccccc3c2)s1 [Compound 6]
- AUC(PO) (In vivo PK, mouse; [4]): 4.20 µM·h
- Cmax (In vivo PK, mouse; [5]): 6.35 µM

SMILES: CCc1cc(-c2ccccc2)cc(S(=O)(=O)c2cnc(CN)s2)c1 [Compound 7e, (5-((5-Ethyl-[1,1′-biphenyl]-3-yl)sulfonyl)thiazol-2-yl)methanamine Hydrochloride]
- AUC(PO) (In vivo PK, mouse; [4]): 9.97 µM·h
- Cmax (In vivo PK, mouse; [5]): 10.2 µM

SMILES: CS(=O)(=O)c1cc(-c2ccccc2)cc(S(=O)(=O)c2ccc(CN)s2)c1 [Compound 3a]
- MLM stability (%) (MLM stability assay): (i) 64%
